Data from US11366114B2, “Genetically encoded fluorescent sensors for detecting ligand bias and intracellular signaling through cAMP pathways” (MONTANA MOLECULAR LLC, priority 2013, dated 2022).

System: cAMP
Assay: Fluorescence response of cAMP sensors to isoproterenol in HEK 293 cells co-expressing the beta adrenergic receptor
Assay type: cell-based, human
Settings: in response to isoproternol
Method in brief: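 Green cAMP-sensor fluorescence was measured at 25 °C in DPBS, by microscopy or plate reader (488/20 nm excitation, 530/20 nm emission), upon addition of isoproterenol, forskolin, IBMX or DMSO. Cells were HEK 293 or 293T transiently expressing sensor plus beta adrenergic receptor for 24-48 h.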

B1: Library 2-2 G4: cAMP sensor; SEQID 13 in Table 1, SEQ ID NO: 14 in Table 3 (protein)
chain: MVAAHAAHSSSSAEWIACLDKRPLERSSEDVDIIFTRLKEVKAFEKFHPNLLHQICLCGYYENLEKGITLFRQGDIGTNWYAVLAGSLDVKVSETSSHQDAVTICTLGIGTAFGESILDNTPRHATIVTRESSELLRIEQKDFKALWEKYRQYMAGLLAPPYGVMETGSNNDRIPDKENTPLIEPHVPLRPANTITKVPSEKILRAGKILRNAILSRAPHMIRDRKYHLKTYRQCCVGTELVDWMMQQTPCVHSRTQAVGMWQVLLEDGVLNHVDQEHHFQDKYLFYRFLDDEHEDAPLPTEEEKKECDEELQDTMLLLSQMGPDAHMRMILRKPPGQRTVDDLEIIYEELLHIKALSHLSTTVKRELAGVLIFESHAKGGTVLFNQGEEGTSWYIILKGSVNVVIYGKGVVCTLHEGDDFGKLALVNDAPRAASIVLREDNCHFLRVDKEDFNRILRLENVYIKADKQKNGIKANFKIRHNIEDGGVQLAYHYQQNTPIGDGPVLLPDNHYLSVQSILSKDPNEKRDHMVLLEFVTAAGITLGMDELFKGGTGGSMVSKGEELFTGVVPIQVELDGDVNGHKFSVSGEGEGDATYGKLTLKFICTTGKLPVPWPTLVTTLTYGVQCFSRYPDHMKQHDFFKSAMPEGYIQERTIFFKDDGNYKTRAEVKFEGDTLVNRIELKGIDFKEDGNILGHKLEYNTRVEANTVRLKEHDQDVLVLEKVPAGNRASNQGNSQPQQKYTVMSGTPEKILEHFLETIRLEATLNEATDSVLNDFIMMHCVFMPNTQLCPALVAHYHAQPSQGTEQEKMDYALNNKRRVIRLVLQWAAMYGDLLQEDDVSMAFLEEFYVSVSDDARMIAALKEQLPELEKIVKQISEDAKAPQKKHKVLLQQFNTGDERAQKRQPIRGSDEVLFKVYCMDPTYTTIRVPVATSVKEVISAVADKLGSGEGLIIVKMSSGGEKVVLKPNDVSVFMTLTINGRLFACPREQFDSLTPLPEQEGPTVGTVGTFELMSSKDLAYQMTIYDWELFNCVHELELIYHTFGRHNFKKTTANLDLFLRRFNEIQFWVVTEICLCSQLSKRVQLLKKFIKIAAHCKEYKNLNSFFAIVMGLSNVAVSRLALTWEKLPSKFKKFYAEFESLMDPSRNHRAYRLTVAKLEPPLIPFMPLLIKDMTFTHEGNKTFIDNLVNFEKMRMIANTARTVRYYRSQPFNPDAAQANKNHQDVRSYVRQLNVIDNQRTLSQMSHRLEPRRP
Relative Change in Fluorescence: −36%
